From patent US7785835 (QUEENSLAND UNIVERSITY OF TECHNOLOGY, dated 2010)

Biological target: T1, vitronectin (UniProt P04004 20-478)
T1 construct: also called VN
T1 sequence (looked up): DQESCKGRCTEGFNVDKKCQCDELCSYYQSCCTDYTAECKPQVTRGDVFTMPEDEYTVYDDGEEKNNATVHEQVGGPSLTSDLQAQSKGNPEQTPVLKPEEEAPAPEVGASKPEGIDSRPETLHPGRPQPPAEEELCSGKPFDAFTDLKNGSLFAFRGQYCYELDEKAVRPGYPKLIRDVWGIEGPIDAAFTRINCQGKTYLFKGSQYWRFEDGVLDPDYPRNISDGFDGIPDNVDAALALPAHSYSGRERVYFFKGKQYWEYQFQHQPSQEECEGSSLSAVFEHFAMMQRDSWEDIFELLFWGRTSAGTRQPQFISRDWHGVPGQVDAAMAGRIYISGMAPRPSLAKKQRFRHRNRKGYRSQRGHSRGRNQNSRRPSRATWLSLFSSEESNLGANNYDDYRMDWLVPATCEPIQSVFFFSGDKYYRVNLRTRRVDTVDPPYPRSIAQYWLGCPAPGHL
Assay: competition binding assay, displacement of [^125I]-IGF-II from VN-coated wells (300 ng/well)
Description: Radiolabeled IGF-II (10,000 cpm) was added to vitronectin-coated wells and the number of counts bound determined after an overnight incubation and several washes. The binding is expressed as a percentage of the binding observed in the control wells with no added IGF-II or proIGF-II. The results are shown as the average of three replicates±SEM from two separate experiments.
Thus, the presence of the E domain within proIGF-II represents a structural modification that alters the binding to vitronectin. This could be due to steric hindrance by the additional domain in proIGF-II compared to IGF-II, or may be a result of an altered structure of the proIGF-II molecule that alters the affinity of proIGF-II for vitronectin.

B1: proIGF-II (ligand)
chain: not shown
For B1, the IC50 was 65.6 nM.
